Data as given in PubChem BioAssay AID686978 (National Center for Advancing Translational Sciences (NCATS), 2013).
Out of some 420,000 compounds screened, about 64,000 (15%) were called active. Inconclusive results, whose numbers are uncertain, are shown with a selection of clear calls. Calls follow the shape of the dose curve; as a rule, active = well fitted inhibition curve with a large enough effect; inconclusive = small, poorly fitted or top-dose-only effect; inactive = flat fitted curve, though single readings scatter. Potencies of inconclusive entries are left out as doubtful fits.
% is scaled to controls: 0 for no effect and ±100 for the full control effect; potency is read from the fitted curve at half-maximal effect; tags tell the direction and shape of the fitted curve.

Assay: qHTS for Inhibitors of human tyrosyl-DNA phosphodiesterase 1 (TDP1): qHTS in cells in absence of CPT; also: nearly all actives have a fitted effect of over 55% in size
Conditions: DT40 Tdp1-/- hTDP1 cells, no CPT, ATP luminescence, 48 h; activity change, negative = growth inhibition: at 46.2 µM (top of the series) unless noted
In short: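 Compound effects on proliferation are scored in DT40 Tdp1-/-;hTDP1 cells in the absence of CPT. ATP levels (CellTiter-Glo luminescence) are recorded after a ≥48 hr, 37 °C incubation.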
With `COc1ccc(OC(=O)COc2cccc(C)c2)cc1` the “activity change, negative = growth inhibition” value was inactive: -6.66%.
In the case of `CCOC(=O)c1cccc(NS(=O)(=O)c2cn(C)c(C)n2)c1`, the “activity change, negative = growth inhibition” value is reported as inactive: -22.6%.
For `CC(C)C[C@@H](CO)NC(=O)CC[C@H](NC(=O)OC(C)(C)C)C(=O)N(Cc1ccccc1)Cc1ccccc1`, the Potency was inconclusive [inhibitor, single point].
For `Cc1cc(C)cc(C(=O)NCC(=O)OCC(=O)N2c3ccccc3NC(=O)C2(C)C)c1`, the “activity change, negative = growth inhibition” value was inactive: -0.0423%.
For `CC1Cc2ccccc2N1C(=O)CO/N=C/c1ccc(OC(F)F)cc1` (configuration not stated), the Potency was inconclusive [inhibitor, single point].
In the case of `Cc1c(NC(=O)/C=C/c2cn(-c3ccccc3)nc2-c2ccc(F)cc2)c(=O)n(-c2ccccc2)n1C`, the Potency is reported as inconclusive [inhibitor, single point].
For `CSCCC(NC(=O)COc1ccccc1)C(=O)NCCOc1ccccc1` (configuration not stated), the Potency was inconclusive [inhibitor, single point].
With `COc1ccc(CNC(=O)c2ccc3c(c2)nc2n3CCCCC2)c(OC)c1` the “activity change, negative = growth inhibition” value was inactive: -18.8%.
In the case of `CCC1(c2ccccc2)NC(=O)N(CC(=O)NC2(C#N)CCCCC2)C1=O` (configuration not stated), the “activity change, negative = growth inhibition” value is reported as inactive: 6.55%.
For `O=C(CCCN1C(=O)[C@H]2CC=CC[C@H]2C1=O)NCc1nc(-c2ccccc2)no1`, the “activity change, negative = growth inhibition” value was inactive: 8.08%.
In the case of `CCCn1c(SCC(=O)N2c3ccccc3CC2C)nnc1-c1ccco1` (configuration not stated), the Potency is reported as inconclusive [inhibitor, single point].
With `c1csc(CSc2nc3ccccc3s2)c1` the “activity change, negative = growth inhibition” value was inactive: -7.04%.
For `Cc1ccc(O)c(NC(=O)c2cccc(S(=O)(=O)N3CCCCC3)c2)c1`, the Potency was inconclusive [inhibitor, partial curve].
With `COc1ccc(OC)c(C2=NS(=O)(=O)N(C)C(C(=O)Nc3cccc(C(C)=O)c3)=C2)c1` the Potency was inconclusive [inhibitor, partial curve, poor fit].
For `COC(=O)c1ccccc1NC(=O)Cn1c(=O)n(-c2ccc(Cl)cc2)c(=O)c2c(C)c(C)sc21`, the activity change, negative = growth inhibition was inconclusive: -30.9% [inhibitor].
With `CCOC(=O)C1(S(=O)(=O)c2ccccc2)CCN(Cc2ccc(Cl)cc2)CC1` the Potency was inconclusive [inhibitor, single point].
With `COC(=O)[C@]12CCCCC=C1N(Cc1cccc3ccccc13)C(=O)[C@H](CC(=O)NCC13CC4CC(CC(C4)C1)C3)C2` the Potency was inconclusive [inhibitor, single point].
For `CCOC(=O)c1c(-c2ccco2)csc1NC(=O)CSc1nnc(N)s1`, the Potency was inconclusive [inhibitor, partial curve].
For `CN1C(=O)CS(=O)c2ccc(C(=O)NCCC3=CCCCC3)cc21` (configuration not stated), the Potency was inconclusive [inhibitor, single point].
With `CCc1nc2ccc(C(=O)NCc3ccccc3OC)cn2c1N(CCC(C)C)CCN(C)C` the Potency was inconclusive [inhibitor, single point].
In the case of `Cc1c(C)c2ccc(OC(C)C(=O)NC3CC(C)(C)NC(C)(C)C3)cc2oc1=O` (configuration not stated), the activity change, negative = growth inhibition is reported as inconclusive: -32.3% [inhibitor].
For `CCCC(=O)N(c1ccc(C(=O)O)cc1)c1nc(-c2ccccc2)c(C)s1`, the Potency was inconclusive [inhibitor, single point].
In the case of `COc1ccc(S(=O)(=O)N(CCCN2CCCC2=O)Cc2cc3cc(C)c(C)cc3[nH]c2=O)cc1`, the Potency is reported as inconclusive [inhibitor, single point].
With `CN(C)c1ccc(/C=C2\C=Cc3ccccc32)cc1F` the Potency was inconclusive [inhibitor, single point].
With `CN1CCN(S(=O)(=O)c2cccc(C(=O)N(C)CC(=O)Nc3ccc(Cl)c(Cl)c3)c2)CC1` the Potency was inconclusive [inhibitor, partial curve].
With `Cc1cc(S(=O)(=O)N(Cc2ccc3c(c2)OCO3)CC2CCCO2)ccc1-n1cnnn1` (configuration not stated) the Potency was inconclusive [inhibitor, single point].
With `CCN(CC)CCNC(=O)c1ccc(NC(=O)c2ccc(COc3ccccc3)cc2)cc1` the “activity change, negative = growth inhibition” value was inactive: -4.72%.
In the case of `Cc1ccccc1C1CC(c2ccc(F)cc2)Nc2nc(N)nn21` (configuration not stated), the Potency is reported as inconclusive [inhibitor, single point].
In the case of `CCOc1ccc(-c2cccc(NS(=O)(=O)c3ccc([N+](=O)[O-])cc3)c2)nn1`, the “activity change, negative = growth inhibition” value is reported as inactive: -5.96%.
With `Cc1ccc(OCCC(=O)OCC(=O)NC(=O)NC2CCCC2)cc1` the Potency was inconclusive [inhibitor, single point].
For `CCC(=O)N(Cc1cc(=O)[nH]c2ccccc12)c1ccc(C)cc1`, the “activity change, negative = growth inhibition” value was inactive: -27.8%.
In the case of `CNC(=S)N1N=C(c2ccc(C)cc2)CC1c1ccc(N(C)C)cc1` (configuration not stated), the Potency is reported as inconclusive [inhibitor, single point].
For `CCOc1ccc(S(=O)(=O)NCCC(=O)N2CCN(Cc3ccccc3)CC2)cc1`, the Potency was inconclusive [inhibitor, single point].
For `COc1ccc(C(=O)N2CCc3cc(OC)c(OC)cc3C2COc2ccc3c(C)cc(=O)oc3c2)c(OC)c1` (configuration not stated), the “activity change, negative = growth inhibition” value was inactive: -20.6%.
In the case of `C/C(=N\NC(=O)C(=O)Nc1ccc(C)c(Cl)c1)c1ccncc1`, the Potency is reported as active: 2.31 µM.
For `CCN(CC)C(=O)C1=C(C)N(Cc2ccc(C(C)(C)C)cc2)C(=O)C(CC(=O)NCCc2ccccn2)C1` (configuration not stated), the Potency was inconclusive [inhibitor, single point].
In the case of `CC(/C=N/NC(=O)c1ccccn1)=C\c1ccco1`, the Potency is reported as inconclusive [inhibitor, partial curve].
For `O=C(Nc1ccc2c(c1)OCO2)C1CCN(C(=O)CSc2ncnc3ccccc23)CC1`, the Potency was inconclusive [inhibitor, single point].
For `CCN1CCN(CC(=O)N2N=CCC2c2ccccc2)CC1` (configuration not stated), the Potency was inconclusive [inhibitor, partial curve, poor fit].
For `COc1cc(NS(=O)(=O)c2ccc3c(c2)CCCN3C(C)=O)cc(OC)c1OC`, the Potency was active: 9.2 µM.
In the case of `Cc1cc(C)cc(-n2nnc(-c3nc(-c4ccccc4F)no3)c2C)c1`, the Potency is reported as inconclusive [inhibitor, single point].
For `COCCNc1nc(=S)[nH]c2cc(OC)c(OC)cc12`, the “activity change, negative = growth inhibition” value was inactive: 0.885%.
